The structures appear in SMILES notation. This is one part of the list.

This assay concerns HSkMC (human skeletal muscle cells). In words: cytotoxicity call (relative viability < 0.9). Particulars: 10 µM.
With `Oc1cc(O)c2c(c1)O[C@H](c1ccc(O)c(O)c1)[C@H](O)[C@H]2c1c(O)cc(O)c2c1O[C@H](c1ccc(O)c(O)c1)[C@@H](O)C2`, the cytotoxicity call is “inactive”.
Consider `COc1c(OCCCN2CCOCC2)ccc2c1N=C(NC(=O)c1cnc(N)nc1)N1CCN=C21`, for which the cytotoxicity call is “inactive”.
For the compound `CC(NC(=NC#N)Nc1ccncc1)C(C)(C)C` (stereo unspecified), the cytotoxicity call was “inactive”.
Regarding `COc1ccc(cc1)NC(=O)N1C[C@]2(C1)CN([C@H](CO)c1[nH]c3cc(ccc3c12)OC)C(=O)CN1CCOCC1`, the cytotoxicity call is “inactive”.
For the compound `COc1ccc(-c2oc3c(CC=C(C)C)c(O[C@@H]4O[C@H](CO)[C@@H](O)[C@H](O)[C@H]4O)cc(O)c3c(=O)c2O[C@@H]2O[C@@H](C)[C@H](O)[C@@H](O)[C@H]2O)cc1`, the cytotoxicity call was “active”.
As to `O=C(NCc1ccncc1)C(=O)NC[C@H]1OCCN1C(=O)c1ccc(Cl)cc1`, the cytotoxicity call was “inactive”.
As for `C[C@H](CO)N1C[C@H](C)[C@@H](CN(C)Cc2ccc(Oc3ccccc3)cc2)Oc2c(NS(=O)(=O)c3ccccc3)cccc2C1=O`, the entry is “inactive”.
With `COc1ccc([Si](C)(C)[C@@H]2[C@@H](CCO)O[C@]3(C(=O)N(Cc4cccc(N5C(=O)COc6ccccc65)c4)c4ccccc43)[C@H]2C)cc1`, the cytotoxicity call is “inactive”.
For `C[C@@H]1CN([C@H](C)CO)C(=O)c2cc(NS(=O)(=O)c3cccs3)ccc2O[C@@H](C)CCCCO[C@@H]1CN(C)Cc1ccccc1`, the cytotoxicity call is “inactive”.
Under `C[C@@H]1CCCCO[C@@H](CN(C)C(=O)c2ccncc2)[C@H](C)CN([C@@H](C)CO)C(=O)c2cc(NS(C)(=O)=O)ccc2O1` stands “inactive”; under `C[C@H]1CN([C@@H](C)CO)C(=O)c2cccc(NS(=O)(=O)c3ccc(F)cc3)c2O[C@@H]1CN(C)S(=O)(=O)c1cn(C)cn1`, “inactive”.

(Values after the antibiotic and cytotoxicity screens of Wong et al. (2023).)
